According to the supplement of paper PMC11417369:
± gives the standard deviation of the averaged measurements. The list shows a part of the results.

Tested on: PfAP2-I AP2 domain 3 (GST-tagged)
Assay: gcPBM binding intensity (ln(normalized median fluorescence intensity)); higher = stronger DNA binding
Summary of the method: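 Using an Agilent 4 × 180k array, primer-extended double-stranded 36-bp intergenic genomic probes and negative controls were exposed for 1 h to GST-fused P. falciparum DNA-binding domains expressed in E. coli. Binding was carried out in 1× PBS with 1% milk, 0.2 mg/ml BSA, 0.5% salmon testes DNA and 0.03% Triton X-100, and protein was detected with Alexa488 anti-GST antibody and a 488 nm scan. Binding intensity is the highest Masliner-normalised natural-log median intensity across replicate spots of either probe orientation.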

Sequence	gcPBM binding intensity (ln)
TTTTGTTATTTTTGTATGCACTACATATTATTATAT	10.2 ± 0.035
TAGTTTTTTATATATTGTACAAATGATATATTATAT [XGTACX_site1002]	7.86 ± 0.54
AAACTTTTTTTAAAAACACACATATAGATTTATATA [CACACA_site7842]	7.83 ± 0.55
GAAATTAAAAAATTTATGCACACTTTAAAAAAAAAA [CACACA_site3769]	10.1 ± 0.25
ATATATATATATAATTGTACATTTTTATGTTTTATA [XGTACX_site4560]	9.36 ± 0.39
ATATGTAGTTTTTATTGTACGTGTAGAAGAAATAAT [XGTACX_site6608]	8.32 ± 0.33
TTCATTAAAATTATTACACACAGTTCTTCAACCAAA [CACACA_site3504]	7.62 ± 0.57
TTTTAAACAGGACACACACACATATAGATTTATATA [CACACA_site6560]	7.88 ± 0.46
AATGATTTTCAATCGAAATGAAACTTAGAAGATATA [CACACA_negctrl_site1475]	7.42 ± 0.61
ACAAAATAATTGTTTACACACCCATTTGTAATTTTA [CACACA_site3615]	7.79 ± 0.69
TCTGTAAACATATTCACACACATAAATTCGCATATA [CACACA_site1866]	7.68 ± 0.59
TGTATGAAAATAAATGCATGCCAAATATATATATAT [TGCATGCA_site132]	9.14 ± 0.2
AAAATGAAATATGTTATATATATATATATATATATA [CACACA_negctrl_site1752]	9.41 ± 0.57
TATCATTGTTCATGCTTGCACTTTTGTTACTGTTCC [GTGCAC_site9425]	8.18 ± 0.93
GAAAATTTATATTGCACACATAGGGAATAAAAAAAA [CACACA_site2146]	10.7 ± 0.4
TAATTTCCTTAAGAATGTACTTACATTTTATTATTT [XGTACX_site5998]	7.54 ± 0.45
TAATATGAAATGTGTACACACGCACCCACAAAAAAA [CACACA_site8949]	9.11 ± 0.31
GTTTATGTATTATTATGTACGTATCATAATATATAT [XGTACX_site2385]	8.28 ± 0.38
ATGGACAAGTTAAACGCACACAAATATATACAGACA [CACACA_site1652]	8.87 ± 0.47
AAAAAATATAAAAAAAGTACACAAAAACTACAAAAA [XGTACX_site2677]	8.01 ± 0.57
AAAAAGAGGAAAAAGATAAAGAAATTAAAGGAGAGA [CACACA_negctrl_site423]	7.55 ± 0.71
TTTAATCATTTTATTTGTACTCATAAAAAATATAAT [XGTACX_site5537]	7.82 ± 0.099
ATAACTTTATTTTCCTGTACACACATTTGACATATT [XGTACX_site7192]	8.54 ± 0.54
ATATATAATATAAGATGTACAATAAAATCTATATAT [XGTACX_site546]	7.88 ± 0.43
CATAAAATTGTGAAGTGTACATATTTTTAAATATAA [XGTACX_site8986]	8 ± 0.31
